From paper PMC11863771 (Cell Communication and Signaling : CCS, 2025)
Each block holds one binder with its values, some of them ahead of it.

Target: T1, CXCR4-Rluc8 (human, UniProt P61073 1-352)
T1 construct: C-X-C chemokine receptor type 4 (CXCR4), human cDNA from the Missouri S&T cDNA Resource Center; source: HEK293A, transiently transfected, in cells; not shown: Rluc8, C-terminal, kept
Test: FRET or BRET; quantitative BRET saturation in HEK293A cells: fixed amount of Rluc8-tagged donor, increasing amounts of mCit-tagged acceptor, coelenterazine h 5 µM; no ligand, no further receptor coexpressed
Settings: partners not purified

T1 sequence (P61073 whole entry): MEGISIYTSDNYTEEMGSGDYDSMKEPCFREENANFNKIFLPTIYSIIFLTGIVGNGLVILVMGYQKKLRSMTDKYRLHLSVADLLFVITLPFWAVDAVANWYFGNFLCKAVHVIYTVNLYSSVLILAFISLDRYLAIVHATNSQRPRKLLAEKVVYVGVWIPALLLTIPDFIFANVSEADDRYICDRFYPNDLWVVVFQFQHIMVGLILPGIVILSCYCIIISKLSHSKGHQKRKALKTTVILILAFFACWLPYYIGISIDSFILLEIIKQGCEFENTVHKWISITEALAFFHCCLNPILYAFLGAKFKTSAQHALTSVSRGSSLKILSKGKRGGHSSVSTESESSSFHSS

BRET50: 5.17 ± 0.338
B1: S1P1-mCit (receptor, human, UniProt P21453 1-382, looked up)
chain: MGPTSVPLVKAHRSSVSDYVNYDIIVRHYNYTGKLNISADKENSIKLTSVVFILICCFIILENIFVLLTIWKTKKFHRPMYYFIGNLALSDLLAGVAYTANLLLSGATTYKLTPAQWFLREGSMFVALSASVFSLLAIAIERYITMLKMKLHNGSNNFRLFLLISACWVISLILGGLPIMGWNCISALSSCSTVLPLYHKHYILFCTTVFTLLLLSIVILYCRIYSLVRTRSRRLTFRKNISKASRSSEKSLALLKTVIIVLSVFIACWAPLFILLLLDVGCKVKTCDILFRAEYFLVLAVLNSGTNPIIYTLTNKEMRRAFIRIMSCCKCPSGDSAGKFKRPIIAGMEFSRSKSDNSSHPQKDEGDNPETIMSSGNVNSSS
notes: sphingosine-1-phosphate receptor type 1 (S1P1), human cDNA S1PR1 from the Missouri S&T cDNA Resource Center; also called mCit-tagged S1P1; source: HEK293A, transiently transfected, in cells; not shown: mCitrine (mCit), C-terminal, kept

BRET50: 6.47 ± 0.377
B2: S1P3-mCit (receptor, human, UniProt Q99500 1-378, looked up)
chain: MATALPPRLQPVRGNETLREHYQYVGKLAGRLKEASEGSTLTTVLFLVICSFIVLENLMVLIAIWKNNKFHNRMYFFIGNLALCDLLAGIAYKVNILMSGKKTFSLSPTVWFLREGSMFVALGASTCSLLAIAIERHLTMIKMRPYDANKRHRVFLLIGMCWLIAFTLGALPILGWNCLHNLPDCSTILPLYSKKYIAFCISIFTAILVTIVILYARIYFLVKSSSRKVANHNNSERSMALLRTVVIVVSVFIACWSPLFILFLIDVACRVQACPILFKAQWFIVLAVLNSAMNPVIYTLASKEMRRAFFRLVCNCLVRGRGARASPIQPALDPSRSKSSSSNNSSHSPKVKEDLPHTAPSSCIMDKNAALQNGIFCN
notes: sphingosine-1-phosphate receptor type 3 (S1P3), human cDNA S1PR3 from the Missouri S&T cDNA Resource Center; also called mCit-tagged S1P3; source: HEK293A, transiently transfected, in cells; not shown: mCitrine (mCit), C-terminal, kept
